Read counts are not given, so values of variants with three or more changes are uncertain.
B1: LINE1-mini (parent)
chain: GGCAGAGCUCAACACAGCGUGGCAAAGUGGCUGUGGCUAGACUGCC

Variants of: B1
Assay: self-cleavage, relative activity (ratio to wild type); higher = more cleavage; in vitro, sequencing; the parent is a self-cleaving ribozyme

Row | Variant | self-cleavage
1 | GACAGAGCUCAACACAGCGUGGUCAAGUGGUUGUGGCUAGACUGCC [G2A C23U A24C C31U] | 0.12
2 | GACAGAGCUCAACACAGCGUGGCAAAGUGGAUGUGGCUAGACUGCA [G2A C31A C46A] | 0.15
3 | GACAGAGCUCAACACAGCGUGGCAAAGUGGUUGUGGGUACACUGCC [G2A C31U C37G G40C] | 0.04
4 | GACAGAGCUCAACACAGCGUGGCAAAGUGGUCGUGUCGAGAGAGCC [G2A C31U U32C G36U U38G C42G U43A] | 0.11
5 | GACAGAGCUCAACACAGCGUGGCAAAGUGGCUGUGGGUUGACUGCC [G2A C37G A39U] | 0.2
6 | GACAGAGCUCAACACAGCGUGGCAAAGUGGCUGUGGGUAGACUGCA [G2A C37G C46A] | 0.09
7 | GACAAAGCUCAACACCGCGUGGUAAAUUGGCGGUGGCUAGACUGCC [G2A G5A A16C C23U G27U U32G] | 0.04
8 | GACAAAGCUCAACACAGCGUGGCUAAGUGGCUGUGCCUAGACUGCC [G2A G5A A24U G36C] | 1.89
9 | GACAAAGCUUAACACAGCGUGGCAAAGUGGCUGUGGCUAGAAUGCC [G2A G5A C10U C42A] | 0.06
10 | GACAAAGCUCAACACAGCGUGGCAAAGUGGCUGUGGAUAGAAUGCC [G2A G5A C37A C42A] | 0.48
11 | GACAAAACUUAACACAGCGUGGCAAAGGGGCUGUGGCUAGACUGGC [G2A G5A G7A C10U U28G C45G] | 0.19
12 | GACAAAGCUCAACACAGCGUGGCAAACUGGCUGUGGCUAGACUGCC [G2A G5A G27C] | 1.68
13 | GACACAGUUCAGCACAGCGUGGAAAAGUGGCUGUGGCUAGACUGCC [G2A G5C C8U A12G C23A] | 0.03
14 | GACACACCUCAACACCGCGUGGCAAAGUGACUAUGGCUACACUGCC [G2A G5C G7C A16C G30A G33A G40C] | 0.02
15 | GACACAGCUCAACACAGCGUGUCGAAGGGGCUGUGGCUAUACUGCC [G2A G5C G22U A24G U28G G40U] | 0.01
16 | GACAUAGCUCAAUACAGCGUGGCAAAGUGAUUGUGGCUAGAUUGGC [G2A G5U C13U G30A C31U C42U C45G] | 0.09
17 | GACAUAUCUCAACAUAGCGUGGCAAAGUGACUGUGGCUAGACUGCC [G2A G5U G7U C15U G30A] | 0.08
18 | GACAUAGCUCAACACAGCGUCACAAACUGGCUGUGGCUAGACUGCC [G2A G5U G21C G22A G27C] | 0.38
19 | GACAUAGCUCAACACAGCGUUGCAACGUGGCUGUGGCUAGACUGCC [G2A G5U G21U A26C] | 0.2

Row | Variant | self-cleavage
20 | GACAUAGCGCAACACAGCGUGGCAAAGUGGCUGUUGCUAGACUGCC [G2A G5U U9G G35U] | 0.14
21 | GACAUAGCUCAACACAGCGUGGCAAAGUGGCCGUGGCUAGACUGCC [G2A G5U U32C] | 0.06
22 | GACAGAACUCAACACAGCGUGGCUAAGUGGCUGUGGCUAGACUGCC [G2A G7A A24U] | 1.49
23 | GACAGAAAUCAACCCAGCGUGGCAAAGUGGCUGUGGGAAGACUCCC [G2A G7A C8A A14C C37G U38A G44C] | 0.15
24 | GACAGAAAUCAACACAGAGUGGCAAAGUGGCUGUGGCUAGACUGCC [G2A G7A C8A C18A] | 0.54
25 | GACAGAAGUCAACACAGCGCGGCAAAGUGGCUGGGGCUAUACUGCC [G2A G7A C8G U20C U34G G40U] | 0.36
26 | GACAGAACUCAAUACAGCGUGGCAAAGUGGCUGUGGCUAGACUGCC [G2A G7A C13U] | 0.32
27 | GACAGAACUCAACACAGCCUGGCAAAGCGGCUGUGGCUAGACUGCC [G2A G7A G19C U28C] | 0.08
28 | GACAGAACUCAACACAGCGUCUCAAAGUCGCUGUGGCUAGACUGAC [G2A G7A G21C G22U G29C C45A] | 0.36
29 | GACAGAACUCAACACAGCGUGGCAAAGUUGCUGGGAAUAGACUGCC [G2A G7A G29U U34G G36A C37A] | 0.02
30 | GACAGAACUCAACACAGCGUGGCAAAGUGGCUGUAGCUGGACUGCC [G2A G7A G35A A39G] | 0.44
31 | GACAGACCUCUACACAGCGUGGCAAAGUGCCUGUCGCUAGACAGCC [G2A G7C A11U G30C G35C U43A] | 0.02
32 | GACAGACCUCAGCACAGCGUGGCACAGUCGCUGUGGCUAGACUGCC [G2A G7C A12G A25C G29C] | 0.01
33 | GACAGACAUCCACACAGCAUGGCAAAGUGGCUGUGGCUAGACUGCC [G2A G7C C8A A11C G19A] | 0.03
34 | GACAGACGUCAACACAGCGCGGCAAAGUGGCUGUGGCUACACUACC [G2A G7C C8G U20C G40C G44A] | 0.07
35 | GACAGACCUCAACACAGCGUGGCAAAGUGGCUGUAGCUAGACUGCC [G2A G7C G35A] | 0.1
36 | GACAGAUAGCAACACAGCGUGGCUAAGUGGCUGCGGCUGGACUGCC [G2A G7U C8A U9G A24U U34C A39G] | 0.65
37 | GACAGAUCUCAACAAAGCGUGGCAAAGUGGCUGUGGCUAGACUGCC [G2A G7U C15A] | 0.07
38 | GACAGAUCUCAACACAGCGUGGUAAAGCGGCUGUGGCUAGACUGCC [G2A G7U C23U U28C] | 0.02

Row | Variant | self-cleavage
39 | GACAGAUCUCAACACAGCGUGGCAAAGUGGCUGUGGCUAGAUUGUC [G2A G7U C42U C45U] | 0.02
40 | GACAGAUCUCAACACAGCGUGACAGAGUGGCUGUGGCUAGACUGCC [G2A G7U G22A A25G] | 0.17
41 | GACAGAUCUCAACACAGCGUGGCAAAGUUGCUGUGGCUAGACUGCC [G2A G7U G29U] | 0.13
42 | GACAGAGCUCAACACAACGUGGCAAAGUGGCCGUGGCUAGAAUGCC [G2A G17A U32C C42A] | 0.01
43 | GACAGAGCUCAACACACAGUGGCAAAGUGGCUGUGGCUAGAAUGCC [G2A G17C C18A C42A] | 0.09
44 | GACAGAGCUCAACACACCGUGGAAAAGUGGCUGUGGCUAGACUGCG [G2A G17C C23A C46G] | 0.27
45 | GACAGAGCUCAACACACCGUGGCAAAGUGGGGGAGGCUAGACUGCC [G2A G17C C31G U32G U34A] | 0
46 | GACAGAGCUCAACACACCGUGGCAAAGUGGCUGUAGCUAGACUGGC [G2A G17C G35A C45G] | 0.13
47 | GACAGAGCUCAACACAUCAUGGCAAAGUGGCUGUGUCUAGACUGCC [G2A G17U G19A G36U] | 0.04
48 | GACAGAGCUCAACACAUCGUGGCAAAGUUGCUGUGGCUAGACUGCC [G2A G17U G29U] | 0.19
49 | GACAGAGCUCAACACAUCGUGGCAAAGUGGCUCUGGCUAGACUGCC [G2A G17U G33C] | 0.15
50 | GACAGAGCUCAACACAGCAUGGCAAAGUGGCUGUGGCUAGAUAGCC [G2A G19A C42U U43A] | 0.11
51 | GACAGAGCUCAACACAGCAUUGCAAACUGGCUGUGGCUAGAUUGCC [G2A G19A G21U G27C C42U] | 0.05
52 | GACAGAGCUCAACACAGCACGGCGAAGUGCCUGUGGCUAGGCUGCC [G2A G19A U20C A24G G30C A41G] | 0.06
53 | GACAGAGCUCAACACAGCCUGGCAAAGUGGCUGUGGCUAGCCUGCC [G2A G19C A41C] | 0.07
54 | GACAGAGCUCAACACAGCCUGGCAAAGUGGCUGUGGCUAGAAUGCC [G2A G19C C42A] | 0.06
55 | GACAGAGCUCAACACAGCGUAGCGAAGUGGCUGUGGCUAGACUGCC [G2A G21A A24G] | 1.24
56 | GACAGAGCUCAACACAGCGUCGGACAGUGGCUGUGGCUAGACUGCG [G2A G21C C23G A25C C46G] | 0.61

— the RNAGym collection of RNA variant scans (doi:10.7554/elife.90254)
